Assay results as given in PMC6919601, “Identification of Plasmodium dipeptidyl aminopeptidase allosteric inhibitors by high throughput screening” (PLoS ONE, 2019).
Values joined by “and” are separate entries in the source; they are usually repeats but may differ in a detail not shown here. Identical values can stand only once. About 230 (0.21%) of roughly 110,000 compounds showed an effect of 50% or more. The list shows a part of the results.

molecular target: DPAP1 (Plasmodium falciparum, UniProt Q8IIJ9); test: primary screen, percent inhibition; read by cleavage of a fluorogenic dipeptide substrate; higher = more effect of the substance; design: species or system P. falciparum D10 trophozoite lysates; single well
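Further: 30 min substrate incubation versus DMSO and 10 µM JCP410 controls.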

Chain of DPAP1 (Q8IIJ9 whole entry, looked up): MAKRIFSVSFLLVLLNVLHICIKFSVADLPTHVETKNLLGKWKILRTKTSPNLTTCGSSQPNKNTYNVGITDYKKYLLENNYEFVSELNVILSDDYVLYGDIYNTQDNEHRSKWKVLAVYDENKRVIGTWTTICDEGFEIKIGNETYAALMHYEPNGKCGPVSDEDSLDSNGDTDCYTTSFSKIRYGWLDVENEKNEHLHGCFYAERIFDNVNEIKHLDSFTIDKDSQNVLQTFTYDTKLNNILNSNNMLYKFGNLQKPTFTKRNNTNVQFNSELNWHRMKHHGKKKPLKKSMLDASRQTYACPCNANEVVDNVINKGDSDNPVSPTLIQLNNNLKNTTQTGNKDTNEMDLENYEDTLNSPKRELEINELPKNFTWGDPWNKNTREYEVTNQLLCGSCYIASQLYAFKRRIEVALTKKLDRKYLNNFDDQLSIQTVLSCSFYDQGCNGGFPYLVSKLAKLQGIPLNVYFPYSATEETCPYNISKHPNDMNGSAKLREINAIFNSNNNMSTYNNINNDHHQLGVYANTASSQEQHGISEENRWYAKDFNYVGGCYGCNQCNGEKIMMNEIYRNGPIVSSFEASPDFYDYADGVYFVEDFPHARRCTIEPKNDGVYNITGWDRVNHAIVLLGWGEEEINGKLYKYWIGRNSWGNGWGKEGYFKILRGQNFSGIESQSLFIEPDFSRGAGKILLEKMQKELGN

| SMILES | % Inhibition @ 10 uM |
| --- | --- |
| COc1ccc(Nc2ncccc2C(=O)NCCC(C)C)cc1 | -6.44% |
| COCCNC(=O)CCc1c(C)nc2c(c(C)nn2C)c1C | -2.45% |
| O=C(c1ccc([N+](=O)[O-])cc1)N1CCc2ccccc21 | 1.7% |
| CCCN1CCC(N(C)C2CCN(C)CC2)CC1 | -5.44% |
| COc1ccc(OC)c(CNc2ncc(-c3cccc(Cl)c3)n2C)c1 | 0.627% |
| CCOC(=O)CSc1nc(N)c(C#N)c(CC)c1C#N | 20.6% |
| CN(C)c1ccc(CN2CCN(Cc3ccc4c(c3)OCO4)CC2)cc1 | 0.605% |
| Cc1ccc(-c2cc(C(=O)Nc3cccc(F)c3)c3ccccc3n2)o1 | 13.3% |
| Cc1nc2nc(NC(=O)C3CCCO3)nn2c(O)c1Cc1ccccc1 (stereo not drawn) | -1.31% |
| Cc1ccccc1Cn1c(C(=O)O)c(CNCc2cccnc2)c2ccccc21 | -1.44% |
| Cc1nnc(NCc2cccnc2)c2c1nnn2Cc1ccc(F)cc1 | -3.49% |
| c1ccc(-c2ccc(-c3cn4ccsc4n3)cc2)cc1 | -0.415% |
| S=C(NC12CC3CC(CC(C3)C1)C2)N1CCCCC1 | 2.94% |
| Cc1ccc(CCNC(=O)c2cc3c(C)nccc3nc2O)cc1 | -2.72% |
| CCOc1ccccc1C(=O)Nc1cccc(C)n1 | -3.74% |
| Cn1c(=O)c2c(-c3ccc(C(C)(C)C)cc3)n(-c3ccccn3)cc2n(C)c1=O | 5.17% |
| CCC(=O)Nc1cccc(-c2nc3ccccc3[nH]2)c1C | -7.22% |
| O=C(CSc1nc2ccccc2s1)Nc1ncc2c(n1)CC(c1ccco1)CC2=O (stereo not drawn) | -1.47% |
| COc1ccc(-c2ccc(C#N)c(SCC(=O)NCc3ccccc3)n2)cc1 | -0.68% |
| COc1cc(OC)cc(C2=N/C(=C\c3cccs3)C(=O)O2)c1 | -6.18% |
| Cc1ccc(C(=O)Nc2ccc(Oc3ccc(NC(=O)c4ccc(C)o4)cc3)cc2)o1 | 7.12% and -0.884% |
| COC(=O)c1cc(S(=O)(=O)N2CCc3ccccc3C2)cn1C | -2.84% |
| CCn1cc(/C=C(\NC(=O)c2ccccc2OC)C(=O)NC(C)C)c2ccccc21 | 3.24% |
| COc1ccc(C2C(C#N)=C(N)OC3=C2C(=O)CC(C)(C)C3)cc1 (stereo not drawn) | -7.96% |
| COc1cccc(CNC(=O)CN2C(=O)CSc3nc(C)cc(C)c32)c1OC | -0.637% |
| CCCO/C(O)=C1\C(C)=NC2=C(C(=O)CCC2)C1c1ccccc1Br (stereo not drawn) | -3.09% |

| SMILES | % Inhibition @ 10 uM |
| --- | --- |
| COCc1cc(C)nc2sc(C(=O)Nc3cc(Br)cc4cccnc34)c(N)c12 | -6.08% |
| Cn1c(=O)c2c(ncn2CC(=O)NCC2CCCO2)n(C)c1=O (stereo not drawn) | 1.58% |
| CCOC(=O)c1c(N2C(=O)C3CC=C(Cl)CC3C2=O)sc2c1CCCC2 (stereo not drawn) | -1.32% |
| COCCCNC(=O)c1cc2c(C)nc3ccccc3c2o1 | 4.74% |
| CN1CCC(N(C)C(=O)c2ccccc2F)CC1 | 3.92% |
| CCCS(=O)(=O)c1nc(S(=O)(=O)c2ccc(C)cc2)c(NCC)s1 | -2.25% |
| CCC(C)NC(=O)C1CCN(C(=O)c2ccccc2)CC1 (stereo not drawn) | -3.67% |
| CC1(C)CC2c3cccc(C(=O)O)c3C(=O)N2Cc2c(Cl)cccc21 (stereo not drawn) | 4.57% |
| Cc1cc(C)c(S(=O)(=O)Nc2cccc(C)c2C)c(C)c1 | 1.35% |
| O=C(NCc1ccc2c(c1)OCO2)c1ccc(-n2cnc3cccnc32)cc1 | -4.21% |
| O=C(CSc1nnc(CNC(=O)c2cccs2)o1)NCc1ccccc1 | -7.21% |
| COCc1nc2ccccc2n1C(C)C | 1.12% |
| COc1cc(/C=C/C(=O)/C=C/c2cc(OC)c(OC)c(OC)c2)cc(OC)c1OC | -5.62% |
| CC1CCN(S(=O)(=O)c2ccc(NS(C)(=O)=O)cc2)CC1 | -1.22% |
| Cc1cc(SCC(=O)NCc2ccco2)nc2ccccc12 | -0.0626% |
| N#C/C(=C\c1cccs1)c1nc(-c2ccc(Cl)c(Cl)c2)cs1 | 1.44% |
| Cc1nc(NCCCO)c2c3c(sc2n1)CCCC3 | 3.06% |
| CC1CCc2sc(N3C(=O)C4C5C=CC(C5)C4C3=O)c(C#N)c2C1 (stereo not drawn) | 0.851% |
| Cc1ccc(NC(=O)c2cnccn2)cc1C | -5.16% |
| Cc1nc2nc(N3C(=O)c4ccc(C(=O)O)cc4C3=O)nn2c(O)c1Cc1ccccc1 | -1.31% |
| Cc1sc(NC(=O)CCC(=O)O)c(C(N)=O)c1-c1ccccc1 | -10.6% |
| Cc1ccccc1CNC(=O)C1CCCN(S(=O)(=O)N2CCOCC2)C1 (stereo not drawn) | 0.616% |
| CCCc1ccc(Oc2coc3cc(OC)ccc3c2=O)cc1 | 1.65% |
| CCOC(=O)C1CCCN(Cc2ccc(F)cc2)C1 (stereo not drawn) | -0.192% |
| C=CCN1C(=O)c2cccc3c(N4CCOCC4)ccc(c23)C1=O | -4.01% |
